Laboratory results: PubChem BioAssay AID1159614 (National Center for Advancing Translational Sciences (NCATS), 2016)
Screen size: about 45,000 compounds; about 65 (0.1%) were called active. The call rests on the fitted dose curve; in most records, active means well fitted activation curve with a large enough effect; inconclusive means small, poorly fitted or top-dose-only effect; inactive means no such curve, though single readings can be large or run the other way. The list shows a part of the results.

Target: Galactocerebrosidase (Homo sapiens) (UniProt P54803)
Chain of UniProt P54803 (P54803 whole entry, looked up): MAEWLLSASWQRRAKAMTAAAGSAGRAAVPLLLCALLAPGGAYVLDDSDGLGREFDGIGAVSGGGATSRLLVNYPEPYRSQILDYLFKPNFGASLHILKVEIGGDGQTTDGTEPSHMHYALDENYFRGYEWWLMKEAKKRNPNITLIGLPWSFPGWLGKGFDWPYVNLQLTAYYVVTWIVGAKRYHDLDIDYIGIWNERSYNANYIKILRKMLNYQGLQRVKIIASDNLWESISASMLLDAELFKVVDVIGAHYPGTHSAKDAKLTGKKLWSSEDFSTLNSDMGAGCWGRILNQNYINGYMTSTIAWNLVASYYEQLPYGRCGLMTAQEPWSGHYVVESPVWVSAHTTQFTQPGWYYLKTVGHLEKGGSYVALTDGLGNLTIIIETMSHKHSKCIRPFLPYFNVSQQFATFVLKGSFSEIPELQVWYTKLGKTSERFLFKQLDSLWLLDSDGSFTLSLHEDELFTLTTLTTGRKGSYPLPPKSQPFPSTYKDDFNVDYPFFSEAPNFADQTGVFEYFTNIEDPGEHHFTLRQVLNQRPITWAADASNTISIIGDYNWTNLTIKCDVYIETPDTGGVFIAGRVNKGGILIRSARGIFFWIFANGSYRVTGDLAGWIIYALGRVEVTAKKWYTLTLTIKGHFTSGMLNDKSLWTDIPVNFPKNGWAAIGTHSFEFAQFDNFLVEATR
Assay: A Novel Cell-Based Assay to Identify Small Molecules for B -Galactocerebrosidase; further: 0% is about no effect; nearly all actives have a fitted effect of over 65% in size
Conditions: 145M-Twi-hGALC-G270D cells (Twitcher mouse brain line with human GALC G270D), HMU-beta-Gal fluorescence, 48 h; series mostly up to 57.5 µM; activation: at the top concentration
Procedure, shortened: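 Live 145M-Twi cells (Twitcher mouse brain-derived, GALC-null) stably expressing human GALC-G270D, with a wild-type GALC line, were compound-treated. Residual GALC activity was then read as fluorescence from 0.1 mM final HMU-β-gal at pH 5.2; higher signal means activation.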

activation, inactive:
CCc1ccc(-n2c(=O)c3c4c(sc3n(CC(=O)c3ccc(Cl)cc3)c2=O)CCC4)cc1 8.08%, CSc1cccc(NC(=O)C2CCN(C(=O)c3cnn(-c4ccccc4)c3-n3cccc3)CC2)c1 8.18%, COc1ccc2oc(-c3ccc(C)c(NC(=O)COc4cc(C)cc(C)c4)c3)nc2c1 -15.3%, Cc1ccccc1C(=O)Nc1cc(-c2ccc(Cl)cc2)nn1-c1ccccc1 -11.5%, Cc1ccc2c(c1)C(c1ccc(F)cc1)N(C(=O)c1ccc(OC(C)C)cc1)CC(=O)N2 (stereo not given) 2.86%, Cc1nn(-c2ccc(N3CCOCC3)nn2)c(C)c1CCC(=O)NCc1ccc(F)cc1 -4.5%, Cc1ccc(-n2nnc(C(=O)Nc3cc(F)ccc3F)c2C)cc1F -21%, O=C(c1ccccc1)N1c2ncnn2C2(CCCCC2)[C@@H]2CCCC[C@@H]21 -16.3%, COc1ccc(C(=O)CSc2c(C(C)C)cnc3c2c(=O)n(C)c(=O)n3C)cc1 -10.5%, Cc1ccc(NC(=O)C2CCN(c3cc(C)nc4c(-c5ccc(Cl)cc5)c(C)nn34)CC2)c(C)c1 -11.6%, COc1ccccc1N1CCN(C(=O)CN2C(=O)COc3ccc(S(=O)(=O)N4CCC(C)CC4)cc32)CC1 1.94%, Cn1ncc2nc(SCC(=O)Nc3ccc(Br)cc3F)n(Cc3ccccc3)c(=O)c21 -1.07%, Cc1ccn2c(=O)cc(COc3ccc(NC(=O)c4ccccc4F)cc3)nc2c1 -8.18%, CCOc1ccc(NC(=O)CSc2nc3c(oc4ccccc43)c(=O)n2CCOC)cc1 -0.773%, COc1cc2[nH]c(=O)n(CCCC(=O)N3CCN(c4cccc(C(F)(F)F)c4)CC3)c(=O)c2cc1OC -6.76%, COc1ccc(N2CCN(c3oc(-c4ccc(COc5cccc(C)c5)o4)nc3C#N)CC2)cc1 -5.25%, Cc1ccc(NC(=O)CN(C)S(=O)(=O)c2ccc3[nH]c4c(c3c2)CCCC4)c(Cl)c1 -13.7%, COc1ccc(CC(=O)NCCc2csc3nc(-c4ccccc4F)nn23)cc1 -13.9%, COc1cccc2cc(-c3nnc(Nc4c(F)cccc4F)s3)c(=O)oc12 -8.01%, CSc1ncc(C(=O)N2CCN(c3cc(Cl)ccc3C)CC2)c(C)n1 -10.1%, CCCN(C(=O)CCc1nc(-c2ccc(OC)cc2)no1)c1ccccc1F -18.9%, COc1cc(-c2nc(Cn3nnc(C(=O)Nc4ccc(C)cc4C)c3C)c(C)o2)cc(OC)c1OC -11.4%, Cc1oc(-c2ccccc2F)nc1CS(=O)(=O)CC(=O)NCCc1ccc(Cl)cc1 -4.77%, Cc1ccc(C)c2sc(N3CCN(C(=O)C(C)(C)C)CC3)nc12 16.1%, CCN(CCCNC(=O)c1cc2c(Cl)nc3ccccc3c2s1)Cc1ccccc1 16.3%
